Measurements: article PMC4207660, “Identification and Characterization of Hundreds of Potent and Selective Inhibitors of Trypanosoma brucei Growth from a Kinase-Targeted Library Screening Campaign” (PLoS Neglected Tropical Diseases, 2014)
Converted amounts (≈) assume the structure as drawn. Like-named read-outs stand apart in the source and are kept apart here.

Tests used:
Cytochrome P450 (CYP450) = Cytochrome P450 (CYP450) (Homo sapiens, UniProt P08684); test: Cytochrome P450 inhibition profile; format: in vitro ADME; settings: Measured
Description: The P450 inhibition profile of the inhibitors was determined as previously described.

[1] = tested on: T. brucei brucei parasites (Lister 427 strain); test: Dose response growth inhibition assay (resazurin, 72 h); format: cell-based; settings: Trypanosoma brucei; T. b. brucei growth inhibition; read-out: Tbb pEC50 (converted)
Description: Greiner sterile black clear bottom 384-well assay plates were pre-dispensing with 200 nL of compound in each well, from master plates at 1 mM (100% DMSO) containing selection from the GSK compound collection. Controls of 0% response (control 1, 200 nL of 100%DMSO) and 100% response (control 2, 200 nL of 1 mM pentamidine) were included in each assay plate in columns 6 and 18, respectively. Plates containing 200 nL of 100% DMSO were included randomly in the assay, to assess quality through all process. […] After this period, 10 µL of 200 µM resazurin solution in prewarmed HMI-9 were added to each well, and plates were allowed to incubate 2 hours more prior fluorescence reading in a Wallac EnVision Multilabel Plate Reader (Perkin-Elmer). Raw fluorescent data from the Envision plate reader were uploaded into GSK HTS database (ActivityBase). Activity of each well was normalized as a percentage of inhibition per-plate basis using the following equation: [drawing 1]
For dose-response experiments, serial compound dilutions of selected hits from the primary campaign were plotted against compound concentration. Dose response master plates were prepared by 3-fold dilutions (starting with 10 mM DMSO stock solutions), providing 11 concentrations. From these master plates, 200 nL per well was stamped in final assay plates, including the same controls describe in the primary single shot assay. […]

[2] = target: T1, Human Serum Albumin (HSA) (Homo sapiens, UniProt P02768); test: Protein binding assay (HPLC stationary phase), HSA; format: in vitro ADME; settings: Measured
T1 construct: purchased Chiral Technologies, France
Description: Chemically bonded Human Serum Albumin (HSA) and Alpha-1-acidglycoprotein HPLC stationary phases (Chiral Technologies, France) were used for measuring compounds' binding to plasma proteins, applying linear gradient elution up to 30% iso-propanol. The run time was 6 min, including the re-equilibration of the stationary phases with the 50 mM pH7.4 ammonium acetate buffer. The obtained gradient retention times were standardised using a calibration set of mixtures as described in the references. The average standard error of the assay depends on the binding strength and kinetics of the compounds.

[3] = CLND kinetic solubility assay; format: physicochemical; settings: phosphate buffered saline, pH 7.4, aqueous buffer, kinetic from dmso stock; Measured; read-out: Aq Sol
Description: 5 µL of 10 mM DMSO stock solution was diluted to 100 µL with pH 7.4 phosphate buffered saline, equilibrated for 1 hour at room temperature, filtered through Millipore MultiscreenHTS-PCF filter plates (MSSL BPC). The filtrate was quantified by suitably calibrated flow injection Chemi-Luminescent Nitrogen Detection.

ChromlogD assay = test: ChromlogD assay
Description: The Chromatographic Hydrophobicity Index (CHI)[22] values were measured using reversed phase HPLC column (Luna C18 (2), Phenomenex, UK) with a fast acetonitrile gradient at starting mobile phase of pH = 7.4. CHI values are derived directly from the gradient retention times by using a calibration line obtained for standard compounds. The CHI value approximates to the volume % organic concentration when the compound elutes. […] The average error of the assay is ±3 CHI unit or ±0.25 ChromlogD.

[4] = CYP3A4, VG substrate, read-out: CYP3A4VG pXC50 (converted)

Row | Compound | IC50 (Cytochrome P450 (CYP450); [4]) | EC50 [1] | HSA % binding [2] | solubility kinetic at 1 h [3] | IC50 (Cytochrome P450 (CYP450); CYP3A4, VR substrate, read-out: CYP3A4VR pXC50 (converted)) | PFI (ChromlogD assay)
1 | Cc1occc1-c1ncc(O[C@H](CN)c2ccccc2)cc1-c1c[nH]c2ncccc12 [NEU-0001210] | 31.6 nM | 63.1 nM |  |  |  | 
2 | Cn1c(=O)n(-c2ccc(C(C)(C)C#N)cc2)c2c3cc(-c4cnc(N)c(N)c4)ccc3ncc21 [NEU-0001217] | 5010 nM | 6.31 nM | 92.8% | 5 µM (≈ 2.25 µg/mL) | 25100 nM | 9.18
